Drawing on PubChem BioAssay AID485344 (National Center for Advancing Translational Sciences (NCATS), 2010), this text covers inhibition for 61 molecules.

“And” between values parts separate entries of the source, which are not always exact repeats. Identical values can stand only once. In all, about 340,000 compounds went through this assay and about 6,900 (2%) were called active. No stated cut-off is given here; in the data, active means inhibition above about 30%; inactive means below that, where a call was filed. Only a part is listed here, and it is no random draw. Entries without a call were filed so in the source.

The target in this assay is D(2) dopamine receptor (Homo sapiens) (UniProt P14416). The assay is described as follows: HTS Assay for Allosteric Antagonists of the Human D2 Dopamine Receptor: Primary Screen for Antagonists. Further: 0% is about no effect. To be noted: HEK293 TREx D2 cells, calcium flux, dopamine EC80; at 10 µM; stronger effect = higher value. Summed up: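 Calcium flux kinetic readout in an inducible HEK293 TREx D2 line plated overnight at 30 C. After 180 s compound exposure, an EC80 dopamine challenge follows with another 180 s kinetic read to detect antagonism.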
UniProt P14416, sequence (P14416 whole entry, looked up): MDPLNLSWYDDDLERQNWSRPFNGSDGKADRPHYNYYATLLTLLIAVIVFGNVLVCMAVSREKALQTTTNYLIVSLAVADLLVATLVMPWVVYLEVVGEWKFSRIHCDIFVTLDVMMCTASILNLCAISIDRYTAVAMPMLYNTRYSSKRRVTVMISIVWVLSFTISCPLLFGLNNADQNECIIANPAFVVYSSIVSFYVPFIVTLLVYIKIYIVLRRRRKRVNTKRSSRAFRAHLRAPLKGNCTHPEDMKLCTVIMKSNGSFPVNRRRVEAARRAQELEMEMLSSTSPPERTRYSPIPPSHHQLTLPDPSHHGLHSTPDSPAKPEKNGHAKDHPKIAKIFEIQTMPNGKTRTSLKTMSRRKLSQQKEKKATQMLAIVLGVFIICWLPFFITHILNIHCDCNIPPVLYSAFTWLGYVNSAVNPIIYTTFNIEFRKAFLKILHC
A general note: Calcium assays in cells follow changes in intracellular calcium, usually with a dye or a luminescent sensor.
Take `CN1CCN(c2oc(-c3ccccc3Cl)nc2S(=O)(=O)c2ccccc2)CC1`: the inhibition was active: 78.6%.

Take `COc1cc(CN(C(=O)COc2ccc(Cl)cc2)c2ccccn2)cc(OC)c1OC`: the inhibition turned out to be 5.5%.

On to `Cc1ccc(C)c(NC(=O)C2CCN(c3ncnc4c3nc3n4CCCCC3)CC2)c1`, for which the inhibition turned out to be 3.09%.

`COc1ccc(OC)c(C2=NS(=O)(=O)N(C)C(C(=O)Nc3ccc(C(C)=O)cc3)=C2)c1`: the inhibition worked out at 6.19%.

Regarding `CN(C(=O)Nc1ccccc1)C1CCCc2ccccc21` (stereo unspecified), the inhibition was active: 30.4%.

As to `CCN1CCN(C(=O)c2oc(=O)c3ccccc3c2-c2ccc(C)cc2)CC1`, the inhibition is active: 59.2%.

As for `Cc1cccc(C)c1NC(=O)NCCCN1CCN(c2ccccc2)CC1`, the inhibition was -6.7% and active: 72.4%.

On to `CC(C)(C)c1ccc(C(=O)NNc2ncnc3c2cnn3-c2ccc(Cl)cc2)cc1`, for which the inhibition turned out to be 0.982%.

As for `O=C(CSc1ccccc1)N1CCc2c([nH]c3ccccc23)C1c1ccc(Cl)cc1` (stereo unspecified), the inhibition was -10.1%.

On to `Cc1cccc(S(=O)(=O)c2cn(C)c3cc(N4CCCCCC4)c(F)cc3c2=O)c1`, for which the inhibition is -1.66%.

As to `COc1cccc(C(=O)c2cn(CC(=O)Nc3cc(Cl)c(OC)cc3OC)c3nc(C)ccc3c2=O)c1`, the inhibition came to 4.69%.

As to `COc1ccc(NC(=O)Cn2nc3c(cc2=O)CCCC3)cc1Cl`, the inhibition was -10.3%.

Take `CCCCc1nn2c(=O)cc(CN(CC)c3ccccc3)nc2s1`: the inhibition is -3.93%.

Consider `Cc1nc(N2CCCC2)ncc1C(=O)NCc1ccc(Cl)cc1`, for which the inhibition stood at 20.3%.

On to `CC1=C(c2ccc(F)cc2)S(=O)(=O)N=C1N1CCC(C(=O)NCCc2ccccc2)CC1`, for which the inhibition is 8.49%.

In the case of `COc1ccccc1N1CCN(S(=O)(=O)c2ccc(-c3ccno3)cc2OC)CC1`, the inhibition stood at 27.7%.

Regarding `O=C(NCc1ccc(Cl)cc1)c1cc2ccc3cccnc3c2[nH]1`, the inhibition stood at 18.8%.

In the case of `CC(C)c1ccc(Cc2cn3cc(-c4cc5ccccc5oc4=O)nc3s2)cc1`, the inhibition is -1.47%.

Regarding `Cc1ccc(NC(=O)NCCOCCn2c(=O)oc3ccccc32)c(C)c1`, the inhibition was determined as 7.57%.

As to `Cc1ccccc1C(=O)Nc1sc2c(c1C(=O)O)CCC(C(C)(C)C)C2` (stereo unspecified), the inhibition worked out at 4.52%.

Consider `Cc1ccc(C2C(=O)N(C3CCCCCC3)CC(=O)N2C(C)C)cc1` (stereo unspecified), for which the inhibition is -4.2%.

As to `O=C(CSc1nc2c([nH]c3ccccc32)c(=O)n1-c1ccc(F)cc1)NCC1CCCO1` (stereo unspecified), the inhibition was -11%.

On to `O=C(CSc1nc2c([nH]c3ccccc32)c(=O)n1-c1ccccc1)N1CCCc2ccccc21`, for which the inhibition amounted to 7.79%.

For `CC(C)C[C@@H](C(=O)NC1CCN(Cc2ccccc2)CC1)N1C(=O)N2CCc3c([nH]c4ccccc34)[C@@]2(C)C1=O`, the inhibition is active: 30.9%.

Regarding `CNC(=O)C1CCC(Cn2c(=O)c3sccc3n(CC(=O)NCc3ccc(C)cc3)c2=O)CC1` (stereo unspecified), the inhibition is -10.5%.

Consider `Cc1cc(C)c2c(n1)SCC(=O)N2CC(=O)Nc1ccccc1C`, for which the inhibition is 1.63%.

Take `COc1ccccc1N1CCN(CCCNC(=O)Nc2ccccc2C)CC1`: the inhibition was active: 86.9%.

Consider `Cn1c(=O)oc2cc(S(=O)(=O)N3CCCC(C(=O)NCc4ccccc4Cl)C3)ccc21` (stereo unspecified), for which the inhibition is -8.31%.

Regarding `COc1ccc(NC(=O)Cn2c(=O)oc3cc(Cl)ccc32)c(OC)c1`, the inhibition is -19.1%.

Regarding `CCc1ccc(NC(=O)CSc2nc(C)c(C(=O)Nc3ccc(Cl)cc3)c(-c3ccc(OC)cc3)c2C#N)cc1`, the inhibition is -10.1%.

Turning to `CCOc1ccccc1N1CCN(C/C=C/c2ccc(N(C)C)cc2)CC1`, the inhibition is active: 78.8%.

Take `COc1ccc(C(=O)n2nc(-c3ccc(Cl)cc3)nc2NCc2ccco2)cc1`: the inhibition is -27.5%.

For the molecule `CN(C)S(=O)(=O)c1ccc(C(=O)Nc2c(C(=O)Nc3ccc(F)cc3)oc3ccccc23)cc1`, the inhibition was -5.61%.

As to `CCOc1ccc(NC(=O)CSc2ncnc3c2sc2ccccc23)cc1`, the inhibition stood at 4.67%.

Turning to `c1ccc(Nc2ccccc2Nc2ccccn2)nc1`, the inhibition is active: 33.7%.

On to `CCc1ccc(NC(=O)c2cc3c(COC(C)=O)cnc(C)c3oc2=O)cc1`, for which the inhibition was -0.117%.

Consider `COC(=O)c1sc(-c2ccccc2)cc1NC(=O)Nc1ccccc1Cl`, for which the inhibition worked out at 9.5%.

As to `CCOC(=O)N1CCc2c(sc3c2c(=O)n(Cc2ccccc2)c(=O)n3CC(=O)Nc2cccc(C)c2)C1`, the inhibition came to 4.25%.

For the molecule `Cc1cc(C)cc(Nc2nc3ccccc3nc2-n2nc(C)cc2C)c1`, the inhibition was -7.79%.

Turning to `COc1ccc(-c2cn3c(n2)sc2cc(C(=O)Nc4c(C)cccc4C)ccc23)cc1`, the inhibition came out at 17.3%.

Regarding `Cc1ccc(CNC(=O)C2(c3cccs3)CCOCC2)cc1`, the inhibition is -7.45%.

Turning to `CCC1CCCCN1CCCNC(=O)c1cn(CC)c2ccc(S(=O)(=O)N(C)C3CCCCC3)cc2c1=O` (stereo unspecified), the inhibition is -7.94%.

As to `CC(C)(C)c1ccc(C(=O)Nc2ccc(C(=O)OCc3cc(=O)n4ccsc4n3)cc2)cc1`, the inhibition turned out to be 12.6%.

In the case of `Cc1nc2ccc(S(=O)(=O)CCC(=O)Nc3ccc(C(C)C)cc3)cc2s1`, the inhibition is 12.6%.

Consider `COc1ccccc1C(=O)Nc1c(C(=O)N2CCN(c3ccccc3F)CC2)oc2ccccc12`, for which the inhibition was 7.28%.

On to `Cc1cc2c(cc1S(=O)(=O)NCc1ccccc1)OCC(=O)N2`, for which the inhibition is 6.47%.

With `Cc1ccc(NC(=O)c2ccc(COc3ccccc3Cl)o2)cc1`, the inhibition is -0.755%.

Turning to `COc1ccc(NC(=O)CCCSc2nc(-c3ccco3)cc(C(F)(F)F)n2)cc1`, the inhibition came to 2.74%.

As to `O=C(c1ccccc1)c1ccc2nc(N3CCN(c4ccccc4)CC3)c3nncn3c2c1`, the inhibition came to 7.9%.

As for `Cc1ccc(CNC(=O)c2ccc3c(c2)NC(=O)C(CS(=O)(=O)Cc2ccc(F)cc2)N3)cc1` (stereo unspecified), the inhibition was 2.53%.

Regarding `CN(C)c1cccc(C(=O)Nc2nc3ccc(S(=O)(=O)NC(C)(C)C)cc3s2)c1`, the inhibition was determined as 9.18%.

For `COc1cc2c(cc1NC(=O)COc1ccc(Br)cc1C)oc1ccccc12`, the inhibition turned out to be 3.61%.

Regarding `Cc1ccccc1NS(=O)(=O)c1ccc2c(c1)NC(=O)CCS2`, the inhibition is -11.8%.

Take `CC(C)CCNC(=O)CCC(=O)N1Cc2ccccc2Oc2ncccc21`: the inhibition came to 1.95%.

As to `CCN(C(=O)CCS(=O)(=O)c1ccc2c(c1)oc(=O)n2C)c1ccc(OC)cc1`, the inhibition amounted to 5.93%.

Consider `Cc1[nH]c2ccc(C(=O)Nc3ccc(F)cc3)cc2c1C`, for which the inhibition turned out to be 5.44%.

On to `Cc1ccccc1CN1C(=O)c2ccccc2S(=O)c2ccc(C(=O)NCc3ccco3)cc21` (stereo unspecified), for which the inhibition is 21.4%.

`Cc1ccc(NC(=O)CSc2nc3c(c(=O)[nH]2)CCC3)cc1Cl`: the inhibition came to 11.6%.

Turning to `CCS(=O)(=O)N1CCC2(CC1)OC(=O)C(C)=C2C(=O)NCc1cccc(Cl)c1`, the inhibition is -4.57%.

On to `O=c1c([N+](=O)[O-])c(NCCN2CCCCCC2)c2ccccc2n1-c1ccccc1`, for which the inhibition is active: 48.8%.

In the case of `CCn1c(COc2cccc(C)c2)nc2ccccc21`, the inhibition is -9.94%.

What is called inhibition is the change of the read-out against control, counted positive when it falls.
